# PubChem BioAssay AID463173 (ICCB-Longwood Screening Facility, Harvard Medical School, 2010)
# About 4,300 (8.3%) of roughly 52,000 compounds were called active. Cut-off read from the data, not from the text of the source: active = survival mostly below about 52% (no sharp cut-off); inactive = mostly above about 56%. Some of the results follow.
# Tested on: DeltatarO mutant
# Assay: S. aureus survival, RN4220 and DeltatarO strains – OD600, teichoic acid synthesis inhibitors, primary screen (AID 463173)
# Conditions: S. aureus RN4220 wild type/DeltatarO growth, OD600, 18 h, stronger effect = lower value, screened at 18.75 µg/mL (by protocol)
row,Structure (SMILES),survival
1,Cc1ccc2nc(-c3ccc(Cl)c(NC(=O)c4ccc(Br)o4)c3)oc2c1,inactive: 48%
2,CSc1nc2c([nH]c3ccccc32)c(=O)n1-c1ccc(C)cc1,inactive: 87%
3,CSc1ccc(CCNC(=O)c2ccc(CS(=O)Cc3ccc(Cl)cc3)o2)cc1 (stereo not drawn),inactive: 63%
4,CCC(=O)Nc1cc2c(cc1C(=O)CC)OCCO2,inactive: 106%
5,C=CCn1c(=O)[nH]c2c1c(=O)n(C)c(=O)n2C,inactive: 80%
6,CC(=O)N1N=C(c2ccc(C)cc2)CC1c1cn(-c2ccccc2)nc1-c1cccs1 (stereo not drawn),inactive: 140%
7,CSc1ccc(CCNC(=O)c2ccc(-n3c(C)cc4c3CCCC4)cc2)cc1,inactive: 71%
8,O=C(OCc1cc(=O)n2nc(-c3cccs3)sc2n1)c1ccc(F)cc1,inactive: 84%
9,COc1ccc(Nc2ncc3c(n2)CCN(Cc2ccc(Br)s2)C3)c(OC)c1,inactive: 122%
10,Cc1ccc2nc3c(cc(C#N)c(=O)n3-c3nnc(SCc4ccccc4Cl)s3)c(=O)n2c1,inactive: 89%
11,COc1ccc(/C=C/c2nc(C#N)c(N3CCC(C)CC3)o2)cc1OC,inactive: 81%
12,CCOc1ccc(CNS(=O)(=O)c2ccc(-c3cc(C(F)(F)F)on3)s2)cc1,inactive: 76%
13,Cc1ccc2nc3sc(C(N)=O)c(N)c3cc2c1,inactive: 54%
14,CCOC(=O)c1ccc(NC(=O)C2CCN(S(=O)(=O)c3ccc(C)cc3)CC2)cc1,inactive: 61%
15,Cc1cccc(/C=N/NC(=O)c2ccccn2)c1O,active: 5%
16,COc1ccccc1CNC(=O)CS(=O)Cc1nc(-c2ccc(OC)c(OC)c2)oc1C (stereo not drawn),inactive: 127%
17,CC(=O)c1nn(-c2ccc(OC(F)(F)F)cc2)nc1Nc1ccc(C)cc1,inactive: 89%
18,CCC1CN(C(=O)N2CCC(C(=O)O)CC2)c2cc(C)ccc2O1 (stereo not drawn),inactive: 71%
19,Cc1ccc(CCNC(=O)c2ccc(CSCc3ccccc3C)o2)cc1,active: 32%
20,COc1ccc(Nc2cc(C)c3cc(NC(=O)Cc4c(F)cccc4Cl)ccc3n2)cc1,inactive: 75%

row,Structure (SMILES),survival
1,CCN(Cc1ccccc1)C(=O)C1CCN(S(=O)(=O)c2c(C)noc2/C=C/c2ccc(C)cc2)CC1,inactive: 97%
2,C=CCn1c(CCc2ccc(OC(C)C)cc2)n[nH]c1=S,inactive: 71%
3,Cc1ccc2nc(-c3ccc(NC(=O)COc4ccc(Cl)c(C)c4)cc3)sc2c1,inactive: 74%
4,COc1ccc(S(=O)(=O)N2CCN(c3cccc(Cl)c3C)CC2)cc1OC,inactive: 83%
5,CC(Sc1nnc(C2CCCCC2)n1-c1cccc(Cl)c1)C(=O)O (stereo not drawn),inactive: 110%
6,Cc1ccc(C)c(N2CCN(C(=O)c3ccc4[nH]c(C)c(C)c4c3)CC2)c1,inactive: 80%
7,Cc1ccccc1-c1nnc(SCC(=O)N2c3ccccc3Sc3ccccc32)o1,inactive: 86%
8,CCn1c(SCc2ccccc2F)nc(=O)c2c(C(=O)OC)cc(C3CC3)nc21,active: 52%
9,Fc1ccc(C(c2nnnn2C2CCCC2)N(Cc2ccccc2)Cc2ccco2)cc1 (stereo not drawn),inactive: 68%
10,CCCNc1ccc(-c2nc(-c3ccncc3)no2)cc1[N+](=O)[O-],inactive: 72%
11,CCOc1ccc(Cl)cc1C1CC(=O)Nc2cc(OC)c(OC)c(OC)c21 (stereo not drawn),inactive: 103%
12,Cc1cccc(N2CCN(C(=O)c3ccc(NC(=O)c4nsc5ccccc45)cc3)CC2C)c1 (stereo not drawn),inactive: 70%
13,O=C(NCc1ccncc1)C1CCN(S(=O)(=O)c2ccccc2)CC1,inactive: 89%
14,Cc1ccc(NC(=O)CN2C(=O)CCc3cc(S(=O)(=O)N4CCCCC4)ccc32)cc1N(C)C,inactive: 80%
15,CC1CN(C(=O)N2CCC(C(=O)NCc3ccco3)CC2)c2cc(Cl)ccc2O1 (stereo not drawn),inactive: 56%
16,COc1ccc(NC(=O)c2cc(-c3ccccc3O)no2)cc1,inactive: 69%
17,O=C(CCc1ccccc1)NNc1cc(N2CCCCC2)nc(N2CCCCC2)n1,inactive: 57%
18,COc1ccc2[nH]c3c(=O)n(/N=C/c4ccccc4)cnc3c2c1,inactive: 97%
19,CCOc1ccc(NC(=O)CNS(=O)(=O)c2ccc(Br)s2)cc1,inactive: 49%
20,O=C(CSc1nc(-c2cccs2)nc2cc(=O)[nH]n12)Nc1ccc(F)cc1,inactive: 86%

row,Structure (SMILES),survival
1,Cc1ccc(OCc2nc(-c3ccc(C(=O)NCCc4ccc(S(N)(=O)=O)cc4)cc3)oc2C)cc1,inactive: 83%
2,COc1ccc(CNC(=O)c2c(Nc3ccccc3C)sc(C(=O)c3ccccc3)c2N)cc1,inactive: 96%
3,O=C(Nc1ccc2nc(SCC(=O)N3CCCC3)sc2c1)c1ccccc1F,inactive: 62%
4,COc1ccccc1CNC(=O)CN1C(=O)CCc2cc(S(=O)(=O)N3CCOCC3)ccc21,inactive: 135%
5,CCc1ccc(NC(=O)CCCc2nc(-c3ccco3)no2)cc1,inactive: 81%
6,COc1cc2[nH]c(=O)n(CCCC(=O)NCc3ccccc3)c(=O)c2cc1OC,inactive: 137%
7,Cc1cc(C)c(NC(=O)CSc2ncc(S(=O)(=O)c3ccc(C(C)(C)C)cc3)c(=O)[nH]2)c(C)c1,inactive: 53%
8,O=C(NC1CCCC1)c1ccc2c(c1)N(Cc1ccccc1Cl)C(=O)c1ccccc1S2,inactive: 94%
9,Cc1ccc(Cl)cc1NC(=O)CSc1nc(C)c(C)c(C)c1C#N,inactive: 54%
10,COc1ccc(-c2noc(CSc3nnc(-c4ccc(Cl)cc4)n3C)n2)cc1OC,inactive: 64%
11,COc1ccc(CCNC(=O)Cn2cc(S(=O)(=O)Cc3cccc(Cl)c3)c3ccccc32)cc1OC,inactive: 120%
12,CCc1cnc2c(c1SCC(=O)Nc1cc(Cl)ccc1OC)c(=O)n(C)c(=O)n2C,inactive: 101%
13,CCOC(=O)c1cnc2c(C(F)(F)F)cccc2c1Nc1cccc(C(=O)OC)c1,active: 14%
14,CC(C)NC(=O)C1CCCN1C(=O)Nc1ccccc1 (stereo not drawn),inactive: 108%
15,CCOc1ccccc1NC(=O)CSc1nc2c(oc3ccccc32)c(=O)n1Cc1ccco1,inactive: 69%
16,CN1CCN(C(=O)Nc2cccc(Cl)c2)c2cccnc21,inactive: 110%
17,Cc1ccc(CNC(=O)C2CCCN(S(=O)(=O)c3ccc4c(ccn4C)c3)C2)cc1 (stereo not drawn),inactive: 102%
18,CCCCN(CCCC)CCNC(=O)c1cc(=O)[nH]c2ccc(S(=O)(=O)N3CCCCCC3)cc12,inactive: 109%
